Assay results: PubChem BioAssay AID588501 (NMMLSC, 2011)
Screen size: about 360,000 compounds; about 420 (0.12%) were called active. Inconclusive results, whose numbers are uncertain, are shown with a selection of clear calls. Rule as the data show it: active = inhibition above about 30%; inconclusive = no clear call, values can overlap the other calls; inactive = below that.

molecular target: Lethal factor (Bacillus anthracis) (UniProt P15917); experiment: anthrax lethal factor cleavage blockers – biochemical, multiplex microsphere, MLPCN library, primary screen (AID 588501); details: multiplex microsphere protease cleavage assay, LF; at 10 µM; hits give high values; also: plate controls were buffer without enzyme for full effect and enzyme alone for no effect
Sequence of UniProt P15917 (P15917 whole entry, looked up): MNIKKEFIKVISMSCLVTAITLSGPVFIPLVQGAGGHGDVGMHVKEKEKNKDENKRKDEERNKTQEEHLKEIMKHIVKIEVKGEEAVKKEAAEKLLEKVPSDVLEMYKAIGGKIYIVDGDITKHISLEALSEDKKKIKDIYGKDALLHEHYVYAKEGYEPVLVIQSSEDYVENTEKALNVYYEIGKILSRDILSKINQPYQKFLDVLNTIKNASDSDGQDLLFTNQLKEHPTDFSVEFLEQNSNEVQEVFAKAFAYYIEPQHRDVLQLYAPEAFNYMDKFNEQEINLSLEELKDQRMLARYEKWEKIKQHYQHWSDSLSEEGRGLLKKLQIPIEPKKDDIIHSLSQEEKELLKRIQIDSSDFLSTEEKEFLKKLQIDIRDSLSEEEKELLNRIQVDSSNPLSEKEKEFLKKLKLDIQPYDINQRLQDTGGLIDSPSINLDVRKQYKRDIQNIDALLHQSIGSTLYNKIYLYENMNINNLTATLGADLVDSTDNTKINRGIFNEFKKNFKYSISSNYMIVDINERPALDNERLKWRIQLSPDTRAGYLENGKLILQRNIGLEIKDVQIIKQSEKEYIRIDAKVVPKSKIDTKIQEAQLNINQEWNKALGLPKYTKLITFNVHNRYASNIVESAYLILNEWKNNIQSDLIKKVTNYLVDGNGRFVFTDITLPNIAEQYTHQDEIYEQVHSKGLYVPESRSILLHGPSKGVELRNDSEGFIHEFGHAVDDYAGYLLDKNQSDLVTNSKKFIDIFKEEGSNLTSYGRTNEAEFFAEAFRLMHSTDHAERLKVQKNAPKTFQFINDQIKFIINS

| SMILES | inhibition |
| --- | --- |
| O=C(CSCc1nc2ccccc2[nH]1)N1CCN(c2cccc(Cl)c2)CC1 | inconclusive: -12.9% |
| Cc1ccc(CNS(=O)(=O)c2ccc(-n3cccn3)cc2)cc1 | inactive: -5.2% |
| O=C(CSc1nnc(NC2CCCCC2)s1)NC1CCS(=O)(=O)C1 (stereo not drawn) | inconclusive: 4.4% |
| Clc1ccc(Nc2cc(-c3ccccc3)nc3ncnn23)cc1 | inconclusive: -24.5% |
| C=CCOc1c(Br)cc(CNCCCN2CCOCC2)cc1OC | active: 45.4% |
| COCCNC(=O)Nc1ccc2nc(-c3cccs3)c(-c3cccs3)nc2c1 | active: 57.4% |
| CCc1ccc(NC(=O)CSc2nccn(-c3ccc4c(c3)OCCO4)c2=O)cc1 | inconclusive: 4.3% |
| Cc1cccn2c(=O)nc(SCC(=O)NCc3ccccc3)nc12 | inconclusive: -15.4% |
| N#C/C(=C\N1CCOCC1)C(N)=O | inconclusive: 10.3% |
| CCOC(=O)/C(C#N)=C/C=C1/C=CC=CN1C | inconclusive: -4.6% |
| O=C(NCCN1CCc2ccccc2C1)Nc1ccc([N+](=O)[O-])cc1 | inactive: -1.7% |
| O=C1OCCC1S(=O)(=O)c1ccc2ccccc2c1 (stereo not drawn) | inconclusive: -106% |
| CC(=O)N1CCN(C(=O)CCNC(=O)c2ccc(Br)cc2)CC1 | inconclusive: -59.2% |
| Cc1ccc(C)c(S(=O)(=O)N2CCCC2CNC(=O)C(=O)NCCN2CCOCC2)c1 (stereo not drawn) | inconclusive: 4.9% |
| c1ccc2c3c(c(CN4CCCCC4)cc2c1)COC3 | inconclusive: -30.2% |
| Cc1ccccc1CSc1nnc(-c2cnccn2)n1C | inconclusive: 5.1% |
| COc1ccc(C)cc1C1=CC(=O)C[C@H](c2ccc(F)cc2)C1 | inactive: -4.2% |
| CCCCOc1ccccc1Cn1c(=O)oc2ccc(C)cc21 | inconclusive: -13.6% |
| O=c1oc(-c2ccccc2F)nc2scc(-c3ccccc3)c12 | inconclusive: -31.3% |
| CCC1S/C(=N/N=C/c2ccco2)N(Cc2ccccc2C)C1=O (stereo not drawn) | active: 40.7% |
| CCN(CC)c1ccc(-c2nn3c(-c4ccccc4OC)nnc3s2)cc1 | inconclusive: -20.2% |
| CCOc1ccc(CCNC(=O)COC(=O)c2cc(S(=O)(=O)N3CCOCC3)ccc2F)cc1OCC | inconclusive: 2.6% |

| SMILES | inhibition |
| --- | --- |
| CCN(CC)c1ccc(C=Nc2cccc(S(=O)(=O)N3CCOCC3)c2)c(O)c1 | active: 45.5% |
| CCc1ccc(NC(=O)CN2CCCN(S(=O)(=O)c3ccc(F)cc3)CC2)cc1 | inactive: 0% |
| CCOC(=O)N1CCN(c2ccc(S(=O)(=O)N3CCOCC3)cc2[N+](=O)[O-])CC1 | inconclusive: 6.3% |
| COc1ccc(Cl)cc1C(=O)NNC(=O)c1nn(C)c(=O)c2ccccc12 | inconclusive: -2.8% |
| COc1cccc2cc(C(=O)C3=C(O)C(=O)N(CCN(C)C)C3c3ccc(Cl)cc3)oc12 (stereo not drawn) | active: 30.3% |
| CCOC(=O)N1CCc2c(sc3nc4n(c(=O)c23)N=C(c2ccc(OC)cc2)CS4)C1 | inconclusive: -13.4% |
| COC(=O)c1cccc(OCC(O)Cn2cnc3cc(C)c(C)cc32)c1 (stereo not drawn) | inconclusive: 2.9% |
| CCS(=O)(=O)c1ccc2oc(Nc3cc(C)cc(C)c3)nc2c1 | inactive: -2.1% |
| COc1ccc(N2CCN(C(=O)CCNS(=O)(=O)c3ccc4c(c3)CCC(=O)N4)CC2)cc1 | inconclusive: 17.4% |
| CCOC(=O)[C@]12CCCC=C1N(Cc1ccco1)C(=O)[C@H](CC(=O)N1CCSCC1)C2 | inactive: -5.4% |
| O=C(Nc1ccccc1)[C@@H]1[C@@H]2C(=O)N(c3ccc(F)cc3)C(=O)[C@@H]2[C@H]2C=CC=NN21 | inconclusive: -28.6% |
| CN1CCN(C(=O)c2sc(=S)n(-c3ccccc3)c2N)CC1 | inconclusive: -4.1% |
| CCN(CC(=O)Nc1ccccc1OC)C(=O)C1CC2C=CC1C2 (stereo not drawn) | inconclusive: -285% |
| CCn1cc(C=C2C(=O)c3ccccc3C2=O)c2ccccc21 | active: 34.4% |
| CC1(C(=O)O)CCCN(C(=O)c2cc3ccccc3s2)C1 (stereo not drawn) | inactive: -8.5% |
| O=C(Nc1cccc(Cl)c1)Nc1sccc1-c1nc2ccccc2s1 | inconclusive: 14.4% |
| O=[N+]([O-])c1cccc(S(=O)(=O)NCCOc2cccc3cccnc23)c1 | inconclusive: 1.5% |
| O=C(N/N=C/c1cc(Cl)cc([N+](=O)[O-])c1O)c1cccc(S(=O)(=O)N2CCOCC2)c1 | inconclusive: -2.8% |
| CN(Cc1ccccc1Cl)C(=O)C1CC(=O)N(c2ccc3c(c2)OCCO3)C1 (stereo not drawn) | inconclusive: 5.5% |
| COc1ccc(CCNC(=O)c2ccc(CS(=O)(=O)c3ccc(C)cc3)o2)cc1OC | inactive: 6.6% |
| COc1cccc(CNC(=O)C2CCCN(C(=O)c3ccc(Cl)cc3)C2)c1 (stereo not drawn) | inactive: -5.4% |
| CCn1cc(C(=O)Nc2ccccc2C(=O)OC)cn1 | inactive: 1.9% |

| SMILES | inhibition |
| --- | --- |
| CC[n+]1c(/C=C/N(C)c2ccccc2)sc2ccc(Cl)cc21 | active: 59% |
| CCOC(=O)n1ccc(C(=O)Nc2ccccc2F)n1 | inconclusive: -25.6% |
| CCCCn1c(N)c(N(CCOC)C(=O)CCCc2nc3ccccc3c(=O)[nH]2)c(=O)[nH]c1=O | inconclusive: -3% |
| C=Cn1cc(CNC[C@H]2O[C@@H](n3ccc(N)nc3=O)[C@H](O)[C@@H]2O)c(C)n1 | inactive: -1.1% |
| CCc1noc(C)c1C(=O)Nc1ccc(-c2nnc3n2CCCCC3)cc1 | inconclusive: -2.6% |
| O=C(Cc1ccccc1Cl)Nc1ccc(S(=O)(=O)N2CCOCC2)cc1 | inconclusive: 0.6% |
| CC(Sc1nnc(NC2CCCCC2)s1)C(=O)N1CCOCC1 (stereo not drawn) | inconclusive: -4.9% |
| Cc1cc(C(=O)COc2ccc(-c3nnco3)cc2)c(C)n1Cc1ccccc1 | inconclusive: -19.7% |
| CCOc1ccccc1N=Cc1c(O)n(C)c(=O)n(C)c1=O | inactive: -17.9% |
| COc1ccccc1-c1nnc(SC(C)C(=O)NCC2CCCO2)n1C (stereo not drawn) | inactive: -0.7% |
| COc1ccc(NC(=O)CSc2nnc(-c3ccncc3)o2)c(OC)c1 | inconclusive: -8.3% |
| O=C(O)CSc1nnc(-c2cccc(S(=O)(=O)N3CCOCC3)c2)n1-c1ccc(F)cc1 | inconclusive: 2% |
| Cc1ccc(S(=O)(=O)N2CCN(C(=O)c3sccc3C)CC2)cc1 | inconclusive: -1.1% |
| CN(C)C1(CNC(=O)C2CCN(S(=O)(=O)c3cccc(C(F)(F)F)c3)CC2)CCCCC1 | inactive: 3.9% |
| O=C(Nc1ccc(OC(F)F)cc1)c1cc(S(=O)(=O)N2CCOCC2)ccc1N1CCCC1 | inconclusive: 3.9% |
| O=C(Cn1cc(C(=O)c2cccs2)c2ccccc21)NC1CCCCC1 | inconclusive: -122% |
| COc1cc(NCCCCCCN)c2ncccc2c1OC | inactive: -62.3% |
| Cn1c(-c2ccc(C(C)(C)C)cc2)n[nH]c1=S | inactive: 1.4% |
| O=C(Nc1cccc(C(F)(F)F)c1)c1sc(Cl)nc1C(F)(F)F | active: 33.3% |
| Cc1ccc(NC2=CC(=O)C(=O)c3ccccc32)c(C)c1 | inconclusive: -2.3% |
| O=C(NCc1ccc2c(c1)OCO2)C1CC(=O)N(c2ccc(Cl)cc2)C1 (stereo not drawn) | inactive: 9.9% |
| O=C(OCC#CCSc1nnc(-c2cccc3ccccc23)o1)c1ccc(Cl)cc1 | inactive: -10.6% |

| SMILES | inhibition |
| --- | --- |
| CCN(CC)c1ccc(/C=N/Nc2ccc(C)cc2)c(O)c1 | inactive: -3.3% |
| CSc1ccc(S(=O)(=O)NCC(=O)OCC(=O)N(C)C2CCCCC2)cc1[N+](=O)[O-] | inconclusive: 3.9% |
| CSCCC(NC(=O)c1ccco1)C(=O)Nc1ccc(C)c(S(=O)(=O)N2CCOCC2)c1 (stereo not drawn) | inconclusive: -5.9% |
| O=C(O)c1ccc(S(=O)(=O)N2CCC3(CC2)CC(=O)c2ccccc2O3)cc1 | inconclusive: 7.4% |
| CC(=O)c1ccc(CCCC(=O)O)cc1 | inconclusive: -6.9% |
| COC(=O)c1ccc(/C=N/NC(=O)c2ccc3nc[nH]c3c2)cc1 | inactive: 3.4% |
| CN(C)c1ccc(CNC2C3CC4CC(C3)CC2C4)cc1 (stereo not drawn) | inconclusive: -1.2% |
| Cc1cc2n(n1)C(c1ccc3c(c1)OCO3)Nc1c(C)cccc1-2 (stereo not drawn) | inconclusive: -3.9% |
| CCCCN(C(=O)C1CCC1)c1c(N)n(Cc2ccccc2)c(=O)[nH]c1=O | inconclusive: -3% |
| COC(=O)c1ccc(Nc2nc(C)nc3c2nnn3Cc2ccccc2)cc1 | inactive: -0.7% |
| CCCCn1c(N)c(N(CC)C(=O)Cc2ccc(S(=O)(=O)N3CCOCC3)s2)c(=O)[nH]c1=O | inconclusive: 0.8% |
| O=C(NNc1c([N+](=O)[O-])cc(C(F)(F)F)cc1[N+](=O)[O-])c1ccco1 | inactive: -4.3% |
| COc1ccccc1OCCNC(=O)CSC(=S)N1CCCC1 | inconclusive: 0% |
| CCCCNCCOCCOc1ccc(C)cc1[N+](=O)[O-] | inconclusive: 6.8% |
| O=C(Nc1cccc(OC(F)(F)F)c1)c1cccc2c(-c3cccnc3)coc12 | inactive: 3.3% |
| O=C(NC1CCCC1)c1ccc2c(c1)N(Cc1ccc(F)cc1)CCS2 | inactive: 1.3% |
| Cc1ccc(S(=O)(=O)c2c(N)n(Cc3ccco3)c3nc4ccccc4nc23)cc1C | inconclusive: -23.6% |
| Cc1ccsc1-c1nc(CSCC(=O)NCCN2CCCC2)c(C)o1 | inconclusive: -5.6% |
| COc1ccc(C2C(C#N)=C(N)SC(N)=C2C#N)cc1OC | inconclusive: 38.9% |
| O=C(NC1CCN(C(=S)Nc2ccccc2)CC1)C1CCCCC1 | inactive: 8.4% |
| O=C(Cn1c(=O)c2cccn2c2ccccc21)Nc1ccc(F)cc1F | inconclusive: -3.2% |
| O=C(CN1C(=O)NC2(CCCC2)C1=O)NNC(=O)c1ccc(Br)cc1 | inconclusive: -2.5% |
